In all, about 230,000 compounds went through this assay and about 3,600 (1.6%) were called active. Inconclusive means that the source gave no clear call. Such entries were picked first, then a sample of the others. The call rests on the fitted dose curve; in most records, active means well fitted inhibition curve with a large enough effect (not every such curve was filed as active); inconclusive means small, poorly fitted or top-dose-only effect, or another doubt; inactive means no such curve, though single readings can be large or run the other way. Potencies of inconclusive entries are doubtful fits and often do not repeat.
What follows are molecules tested against Lysine-specific demethylase 4E (Homo sapiens) (UniProt B2RXH2) (assay: qHTS Assay for Inhibitors of Human Jumonji Domain Containing 2E (JMJD2E)). Settings: JMJD2E catalytic domain, FDH-coupled NADH fluorescence (FDH is formaldehyde dehydrogenase); series mostly up to 57.1 µM.
Chain of UniProt B2RXH2 (B2RXH2 whole entry, looked up, the tested form may be a part): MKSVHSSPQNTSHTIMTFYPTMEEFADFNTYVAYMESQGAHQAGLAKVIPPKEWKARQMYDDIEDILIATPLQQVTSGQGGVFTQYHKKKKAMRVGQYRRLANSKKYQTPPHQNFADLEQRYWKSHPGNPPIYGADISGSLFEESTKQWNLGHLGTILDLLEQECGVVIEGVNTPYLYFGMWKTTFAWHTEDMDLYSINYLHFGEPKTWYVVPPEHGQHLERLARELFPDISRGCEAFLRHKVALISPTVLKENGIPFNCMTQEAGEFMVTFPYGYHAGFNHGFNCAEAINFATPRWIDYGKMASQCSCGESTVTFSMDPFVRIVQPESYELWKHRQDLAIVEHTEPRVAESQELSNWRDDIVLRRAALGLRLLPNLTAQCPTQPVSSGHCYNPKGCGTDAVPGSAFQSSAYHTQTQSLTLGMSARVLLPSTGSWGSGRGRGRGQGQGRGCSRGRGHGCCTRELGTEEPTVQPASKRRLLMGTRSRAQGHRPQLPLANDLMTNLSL
For `O=C(O)CN1C(=O)SC(Nc2ccccc2C(=O)O)C1=O` (centres undefined), the Potency was inconclusive: 28.2 µM [inhibitor, partial curve].
For `CCS(=O)(=O)NCc1ccc2[nH]c3c(c2c1)CCCC3`, the Potency was inconclusive: 31.6 µM [inhibitor, partial curve].
For `COc1ccc2[nH]c3c(NCCN4CCCCC4)ncnc3c2c1`, the Potency was inconclusive: 28.2 µM [inhibitor, partial curve].
`CCOC(=O)c1c(NC(=O)c2ccc(-n3cnnn3)cc2)sc2c1CCCC2` was tested, and the Potency was inconclusive: 3.55 µM [inhibitor, single point].
`CCn1c(SCC(=O)Nc2ccc(N3CCOCC3)cc2)nnc1-c1ccc(OC)cc1` was tested, and the Potency was “inactive”.
For `CC(C)c1[nH]nc2c1C(c1ccc(OC(=O)c3ccco3)cc1)C(C#N)=C(N)O2` (centres undefined), the Potency was “inactive”.
`Cc1c(Cc2ccccc2)sc(/N=C/c2ccc3ccccc3c2)c1C(N)=O` was tested, and the Potency was inconclusive: 39.8 µM [inhibitor, single point].
`CSc1nc2nc(C)cc(-c3ccccc3)n2n1` was tested, and the Potency was inconclusive: 28.2 µM [inhibitor, partial curve].
`Cc1[nH]nc(N=CC2=C(O)CC(c3ccco3)CC2=O)c1-c1ccc(Cl)cc1` (centres undefined) was tested, and the Potency was “inactive”.
With `N#Cc1ccc(-c2csc(NC(=O)c3ccc(S(=O)(=O)N4CCc5ccccc5C4)cc3)n2)cc1` the Potency was inconclusive: 8.91 µM [inhibitor, single point].
With `C=CCn1cc(C(=O)OCC)c(=O)c2ccc(F)cc21` the Potency was “inactive”.
For `CC(C)OC(=O)C1=C(N)N2C(=O)CSC2=C(C(=O)OC(C)C)C1`, the Potency was inconclusive: 25.1 µM [inhibitor, partial curve].
For `Cc1ccc(NC(=S)N(CCN2CCOCC2)Cc2cc3cc4c(cc3[nH]c2=O)OCO4)cc1`, the Potency was inconclusive: 3.16 µM [inhibitor, full curve, poor fit].
With `COc1ccc2c(c1)c1ncn(CCc3ccccc3)c(=O)c1n2C` the Potency was inconclusive: 31.6 µM [inhibitor, partial curve].
`CN(C)/C=C1\N=C(c2cccs2)OC1=O` was tested, and the Potency was inconclusive: 39.8 µM [inhibitor, single point].
With `CC1(C)Cc2ccccc2C2=NNC(=O)C2=N1` the Potency was inconclusive: 12.6 µM [inhibitor, partial curve].
For `COc1cccc(NC(=O)CSc2ccc3nnc(-c4ccncc4)n3n2)c1`, the Potency was inconclusive: 39.8 µM [inhibitor, single point].
`CCCCOP(=O)(c1ccc(N(C)C)cc1)C(O)c1cccnc1` (centres undefined) was tested, and the Potency was “inactive”.
For `CCn1nnc(NC(=O)c2cccc(-c3cc4ccccc4oc3=O)c2)n1`, the Potency was inconclusive: 28.2 µM [inhibitor, partial curve].
With `COc1ccc(NC(=O)c2oc3ccccc3c2C)c(OC)c1` the Potency was inconclusive: 35.5 µM [inhibitor, single point].
`COc1cc2cc(C(c3nnnn3C(C)(C)C)N3CCC(C)CC3)c(=O)[nH]c2cc1OC` (centres undefined) was tested, and the Potency was inconclusive: 25.1 µM [inhibitor, partial curve].
`CC(=O)Nc1cc2c(ccc3ccccc32)oc1=O` was tested, and the Potency was inconclusive: 3.55 µM [inhibitor, full curve].
With `O=C1Nc2ccc(S(=O)(=O)N3CCCC3C(=O)O)c3cccc1c23` (centres undefined) the Potency was inconclusive: 31.6 µM [inhibitor, single point].
With `CC(=O)c1ccc(N(C)C)c2c(N(C)C)cccc12` the Potency was “inactive”.
In the case of `O=C(CC1SC(=Nc2ccccc2)N(CCc2ccccn2)C1=O)Nc1ccc(F)cc1` (centres undefined), the Potency is reported as “inactive”.
`CCCc1cc2c(n1CCc1ccc(Cl)cc1)C(C)C1CN(C(=O)c3ccccc3)C(C)(C(=O)OC)C21` (centres undefined) was tested, and the Potency was inconclusive: 39.8 µM [inhibitor, single point].
With `Cc1nc(N2CCN(S(=O)(=O)c3ccc(F)cc3)CC2)c2c(-c3cccs3)csc2n1` the Potency was inconclusive: 39.8 µM [inhibitor, single point].
With `COc1ccc(NC(=O)c2oc3ccccc3c2NC(=O)C2CC2)cc1` the Potency was inconclusive: 35.5 µM [inhibitor, single point].
In the case of `O=C(CCCCCn1c(=S)[nH]c2ccc(N3CCOCC3)cc2c1=O)NC1CCN(Cc2ccccc2)CC1`, the Potency is reported as inconclusive: 39.8 µM [inhibitor, single point].
`O=C(NCc1nc2ccccc2[nH]1)c1cccs1` was tested, and the Potency was “inactive”.
In the case of `CCN(CC)S(=O)(=O)c1cccc(NC(=O)c2cc(-c3cccs3)nn2-c2ccccc2)c1`, the Potency is reported as inconclusive: 39.8 µM [inhibitor, single point].
`COc1ccccc1C1=Nn2c(COc3ccccc3)nnc2SC1` was tested, and the Potency was inconclusive: 25.1 µM [inhibitor, single point].
`CCC1(C)Cc2ccccc2-c2[nH][nH]c(=O)c21` (centres undefined) was tested, and the Potency was inconclusive: 22.4 µM [inhibitor, single point].
With `Cc1c(C(=O)OCc2ccccc2)[nH]c2c1C(=O)CC(c1ccco1)C2` (centres undefined) the Potency was “inactive”.
For `Cc1nn(C(C)c2n[nH]c(=S)n2-c2cccc(Cl)c2)c(C)c1[N+](=O)[O-]` (centres undefined), the Potency was “inactive”.
With `Cc1cc(C)nc(SCc2ccc(C(=O)N/N=C/C3CCCCC3)cc2)n1` the Potency was inconclusive: 20 µM [inhibitor, partial curve].
With `N#Cc1c(NCCN)nc(-c2ccccc2)c2c1CCCC2` the Potency was inconclusive: 35.5 µM [inhibitor, single point].
`c1cc2ccc3ccc(-n4cnnn4)c4ccc(c1)c2c34` was tested, and the Potency was inconclusive: 25.1 µM [inhibitor, partial curve].
With `Cc1cc(/C=c2\sc3nc4ccccc4n3c2=O)c(C)n1-c1ccc(C(=O)O)cc1` the Potency was “inactive”.
For `O=C(COC(=O)c1cc(=O)[nH]c2ccccc12)NC1CCCCCCC1`, the Potency was inconclusive: 31.6 µM [inhibitor, partial curve].
`CC(Oc1ccc(C(C)(C)C)cc1)c1ccnc2nc(/N=C/N(C)C)nn12` (centres undefined) was tested, and the Potency was inconclusive: 25.1 µM [inhibitor, partial curve].
For `COc1ccc(N2CCC(CNC(=O)Nc3ccccc3)C2)cc1` (centres undefined), the Potency was inconclusive: 28.2 µM [inhibitor, single point].
In the case of `CCOC(=O)N1CCN(c2c(N3CC=C(c4ccccc4)CC3)c(=O)c2=O)CC1`, the Potency is reported as inconclusive: 31.6 µM [inhibitor, single point].
`O=C1C2C3C=CC(C3)C2C(=O)N1c1ccc2c(c1)OCO2` (centres undefined) was tested, and the Potency was inconclusive: 39.8 µM [inhibitor, single point].
For `c1ccc(N2CCOCC2)c(Nc2nc3ccccc3n3cnnc23)c1`, the Potency was inconclusive: 31.6 µM [inhibitor, single point].
`CC1(C(=O)N(CC(=O)NC2CCCC2)C2CCCC2)CC(=O)N=C2C=CC=CN21` (centres undefined) was tested, and the Potency was inconclusive: 31.6 µM [inhibitor, partial curve].
In the case of `COC(=O)Nc1ccc([N+](=O)[O-])cc1OC`, the Potency is reported as “inactive”.
For `Cc1ccc(-c2cc(C(=O)N/N=C/c3cccnc3)n[nH]2)o1`, the Potency was “inactive”.
In the case of `O=C(O)Cc1nc(-c2cccnc2)sc1-c1ccc(Br)cc1`, the Potency is reported as inconclusive: 31.6 µM [inhibitor, single point].
With `c1ccc(CNc2ccnc(-c3ccoc3)n2)cc1` the Potency was inconclusive: 22.4 µM [inhibitor, single point].
`Cc1ccc(NC(=S)NNC(=O)c2nn(C)cc2Cl)cc1` was tested, and the Potency was active: 20 µM.
In the case of `CCc1ccc(-c2nc(CS(=O)CC(=O)O)c(C)o2)cc1` (centres undefined), the Potency is reported as inconclusive: 17.8 µM [inhibitor, partial curve].
With `O=C(NNC(=O)c1cccc(Br)c1)Nc1ccc(Cl)cc1` the Potency was “inactive”.
In the case of `O=C(O)c1ccc2c3c(cccc13)C(=O)N(c1ccccc1)C2=O`, the Potency is reported as inconclusive: 25.1 µM [inhibitor, single point].
`CCC(=NCCc1c(C)[nH]c2ccc(OC(F)(F)F)cc12)C1=C(O)CC(c2ccccc2)CC1=O` (centres undefined) was tested, and the Potency was “inactive”.
With `CC1(C)C2([N+](=O)[O-])CN3CC1([N+](=O)[O-])CN(C2)C3c1ccc(O)c(O)c1` (centres undefined) the Potency was inconclusive: 28.2 µM [inhibitor, single point].
`Cc1cc(C(=O)N/N=C/c2cc(Br)cc(Br)c2OC(=O)c2ccccc2)n[nH]1` was tested, and the Potency was “inactive”.
For `CCCCn1c(CCn2nc(C)c(Br)c2C)n[nH]c1=S`, the Potency was “inactive”.
`CC(=O)Nc1ccc(-c2csc(Nc3cc(C)ccn3)n2)cc1` was tested, and the Potency was “inactive”.
`CC(=O)c1c(C(C)=O)c(C)n(NC(=O)c2ccccc2O)c1C` was tested, and the Potency was inconclusive: 39.8 µM [inhibitor, single point].
In the case of `O=C(c1ccco1)N1CCN(C/C=C/c2ccccc2)CC1`, the Potency is reported as inconclusive: 28.2 µM [inhibitor, partial curve].
For `O=C1ON=C(c2ccc(Cl)cc2)/C1=C/c1ccc(O)cc1`, the Potency was inconclusive: 39.8 µM [inhibitor, single point].
`COc1ccc(CCNC(=O)/C=C/c2cc(OC)c(OC)c(OC)c2)cc1OC` was tested, and the Potency was inconclusive: 35.5 µM [inhibitor, partial curve].
With `Oc1c(Br)cc(Br)cc1C=NCc1ccc(F)cc1` the Potency was inconclusive: 11.2 µM [inhibitor, partial curve, poor fit].
`CN=C1c2c(-c3ccccc3)c3cc(OC)ccc3n2CCN1C` was tested, and the Potency was inconclusive: 39.8 µM [inhibitor, single point].
In the case of `COc1cccc(NC(=O)C(NCC2CCCCC2)c2ccccc2)c1` (centres undefined), the Potency is reported as inconclusive: 28.2 µM [inhibitor, single point].
With `CCCCCNC(=O)c1ccc2c(=O)n(CC3CCCO3)c(=O)[nH]c2c1` (centres undefined) the Potency was inconclusive: 25.1 µM [inhibitor, single point].
With `CC(C)NC(=O)COC(=O)/C=C/c1ccco1` the Potency was “inactive”.
With `CCCS(=O)(=O)c1nc(S(=O)(=O)c2ccc(C)cc2)c(NCCN2CCOCC2)s1` the Potency was “inactive”.
Further: nearly all actives have a fitted effect of over 50% in size.
Potency means the concentration at half of the fitted maximal effect; tags describe the fitted curve by direction and shape.
